{"source": "ChEMBL document CHEMBL4888484", "about": "“Replenishing the malaria drug discovery pipeline: Screening and hit evaluation of the MMV Hit Generation Library 1 (HGL1) against asexual blood stage Plasmodium falciparum ,using a nano luciferase reporter read-out” (2022)", "note": "The campaign covered roughly 150,000 compounds. About 540 (0.36%) showed an effect of 50% or more. Some of the results follow.", "data": [{"system": "Plasmodium falciparum", "assay": "Primary screen in NF54 nanoGlo assay, in single point, at 2uM, 72h; a lower Z score goes with more inhibition", "assay_type": "functional, Erythrocyte", "conditions": "timepoint 72 hour", "units": {"% Inhibition": "%"}, "values": [{"smiles": "COc1cnc(NC(=O)NC[C@H]2[C@H](c3ccccc3)C2(F)F)s1", "% Inhibition": 2, "Z score": -0.38}, {"smiles": "CCN1CCN(c2nc3ncn(CC(=O)Nc4ccc(Br)c(C)c4)c(=O)c3s2)CC1", "% Inhibition": -9, "Z score": 1.5}, {"smiles": "Cc1cc(C(=O)N2C[C@@H]3CC[C@H]2CN(CCCc2ccccc2)C3)nc(C)n1", "% Inhibition": -12, "Z score": 1.15}, {"smiles": "c1cncc(-c2nc(-c3ccncc3)no2)c1", "% Inhibition": -14, "Z score": 1.82}, {"smiles": "O=C(Nc1ccc(OCCc2ccccn2)cc1)N1C[C@H]2CC=CC[C@H]2C1", "% Inhibition": -10, "Z score": 1.71}, {"smiles": "CCOCc1nnc(NCc2c(C)nn(C)c2C)o1", "% Inhibition": -15, "Z score": 1.29}, {"smiles": "Cc1nnc2ccc(-c3noc(-c4cccc5[nH]ccc45)n3)cn12", "% Inhibition": -12, "Z score": 2.06}, {"smiles": "CC(C)(C)n1cc(CN2CCC[C@@H](CO)[C@H]2C(F)(F)F)nn1", "% Inhibition": -1, "Z score": 0.08}, {"smiles": "CC1CCC2(CC1)OC[C@@H](C(=O)N1CCCC1)N2C(=O)c1ccc(C(F)(F)F)cc1", "note": "(stereo partly drawn)", "% Inhibition": -6, "Z score": 0.69}, {"smiles": "Cc1cc(N2C[C@H]3CC[C@@H](C2)[C@H]3N(C)C)nc(Nc2cccc(O)c2)n1", "% Inhibition": 77, "Z score": -8.01}, {"smiles": "CCn1ccc2c(cc(C(=O)Nc3cc(Cl)ccc3OC)n2C)c1=O", "% Inhibition": -3, "Z score": 0.46}, {"smiles": "Cc1nn(CC(=O)N2CCCC2)c(=O)c2nc(-c3ccccc3)sc12", "% Inhibition": -9, "Z score": 1.26}, {"smiles": "O=C(Nc1c(C(=O)O)sc2ccccc12)c1ccccn1", "% Inhibition": -10, "Z score": 1.61}, {"smiles": "O=C(Nc1ccc2c(c1)OCO2)Nc1ccc2c(c1)OCO2", "% Inhibition": -1, "Z score": 0.13}, {"smiles": "O=C(COc1ccccc1Cl)N(Cc1ccco1)c1cccc(Cl)c1", "% Inhibition": -7, "Z score": 0.89}, {"smiles": "CCCC(O)(CCC)CNC(=O)Nc1cc(C)on1", "% Inhibition": -5, "Z score": 0.54}, {"smiles": "CC(C)Nc1ccc(C(=O)N2CCC[C@@H]2CO)cn1", "% Inhibition": -10, "Z score": 1.74}, {"smiles": "c1cc(-c2nc3c(c(N4CCC[C@H](N5CCCC5)C4)n2)CCC3)ccn1", "% Inhibition": -7, "Z score": 0.85}, {"smiles": "COCCCn1cnc2c(-c3ccccc3)cn(CC(=O)Nc3cc(Cl)ccc3OC)c2c1=O", "% Inhibition": -5, "Z score": 0.73}, {"smiles": "Cc1cc(C)c(C(=O)NCC2=CCCN([C@@H]3C=CCCC3)C2)c(C)c1", "% Inhibition": -20, "Z score": 2.65}, {"smiles": "COc1cc(C(=O)NC(C)(C)c2c(C)noc2C)on1", "% Inhibition": 34, "Z score": -0.66}, {"smiles": "COc1cc2c(cc1OC)[C@H](CNC(=O)c1ccc(Cl)cc1)N(Cc1cccc(C)c1)CC2", "% Inhibition": 16, "Z score": -2.25}, {"smiles": "Cc1c(-c2cccc(C(=O)NCC3(C)COC3)c2)cnn1C(F)F", "% Inhibition": -2, "Z score": 0.31}, {"smiles": "CCOc1ccc(CNC(=O)CN(C)c2nc3c(s2)c(C)nn3-c2ccccc2)cc1OCC", "% Inhibition": 7, "Z score": -0.9}, {"smiles": "Cc1cccc(CN[C@H]2CC(C)(C)Cc3c2cnn3-c2ccccc2C)n1", "% Inhibition": -7, "Z score": 1.01}, {"smiles": "Cc1ccc(NC(=O)Cn2cc(S(=O)(=O)N3CCOCC3)ccc2=O)cc1C", "% Inhibition": -7, "Z score": 1.47}, {"smiles": "COCCc1nc([C@@H](C)Cn2cccn2)n(C2CCN(C)CC2)n1", "% Inhibition": 8, "Z score": -1.06}, {"smiles": "C[C@@H](CN)Oc1ccc(Br)cc1", "% Inhibition": 4, "Z score": -0.59}, {"smiles": "COc1ccc(C(=O)NC2CCC(Nc3nc(C)nc4c3cnn4-c3ccc(OC)cc3)CC2)cc1", "note": "(stereo not drawn)", "% Inhibition": -43, "Z score": 4.6}, {"smiles": "O=C(c1nc2ccccc2s1)N1CC(Oc2cccc(C(F)(F)F)n2)C1", "% Inhibition": -20, "Z score": 3.81}, {"smiles": "C[C@H](NC(=O)Nc1ccccc1)C(=O)N1CCCCC1", "% Inhibition": 4, "Z score": -0.49}, {"smiles": "Cc1nc(C(=O)Nc2ccncc2)c(-c2ccccc2)s1", "% Inhibition": -4, "Z score": 0.57}, {"smiles": "O=C(CN1CCC[C@H]1c1nc2ccccc2s1)N1CCCCC1", "% Inhibition": -12, "Z score": 2.17}, {"smiles": "CNS(=O)(=O)CCNc1ncc2ccccc2n1", "% Inhibition": -4, "Z score": 0.7}, {"smiles": "CC(CCC1CCCO1)NC(=O)c1c[nH]c(=O)c(Br)c1", "note": "(stereo not drawn)", "% Inhibition": -2, "Z score": 0.18}, {"smiles": "O=C1CNC(=O)N1[C@H]1CCO[C@@H]1c1ccccc1", "% Inhibition": 3, "Z score": -0.63}, {"smiles": "CCOc1ccc(-c2nc(CN[C@H]3CCOC34CCCC4)co2)cc1", "% Inhibition": -14, "Z score": 1.78}, {"smiles": "O=C(CCCc1cn[nH]c1)NC(c1ccccc1)[C@H]1C[C@@H](O)C1", "note": "(stereo partly drawn)", "% Inhibition": -11, "Z score": 1.67}, {"smiles": "Cn1cc(CNCCCOc2cccnc2)c(-c2ccc3c(c2)OCCO3)n1", "% Inhibition": 3, "Z score": -0.65}, {"smiles": "CC(C)=CCN1C(=O)[C@@H]2CC[C@H]1CN(C(=O)Cc1cccc(F)c1F)C2", "% Inhibition": -3, "Z score": 0.51}, {"smiles": "CC(NC(=O)c1n[nH]c(=O)c2ccccc12)C1CCCO1", "note": "(stereo not drawn)", "% Inhibition": -13, "Z score": 2.37}, {"smiles": "CCOC(=O)C1CCN(C(=O)c2coc(CN(Cc3ccc4c(c3)OCO4)Cc3ccccc3Cl)n2)CC1", "% Inhibition": -11, "Z score": 1.98}, {"smiles": "O=C(Cn1nc(-c2ccc(OC(F)F)cc2)c(Cl)c1-c1ccc(OC(F)F)cc1)NC1CCCCC1", "% Inhibition": 29, "Z score": -3.27}, {"smiles": "Nc1nccc(C2CCN(C(=O)Nc3cc(F)c4c(c3)NC(=O)CO4)CC2)n1", "% Inhibition": -9, "Z score": 1.45}, {"smiles": "O=C(NC1CCCC1)c1cn(CCc2ccccc2)nn1", "% Inhibition": 3, "Z score": -0.5}, {"smiles": "Cc1noc(C)c1CN(C)C(=O)C1CC(c2ccccc2)C1", "note": "(stereo not drawn)", "% Inhibition": 0, "Z score": 0.02}, {"smiles": "Cc1noc(C)c1S(=O)(=O)N[C@H]1CCOC[C@@H]1Oc1cccc(F)c1", "% Inhibition": -1, "Z score": 0.15}, {"smiles": "COCCN(Cc1cccs1)C[C@H](O)COCC(C)C", "% Inhibition": -11, "Z score": 1.81}, {"smiles": "Cc1nc(CN2C(=O)NC3(CCC3)C2=O)oc1C", "% Inhibition": 3, "Z score": -0.39}, {"smiles": "Cc1ccccc1Nc1nc(Nc2ccccc2C)nc(N2CCN(c3ccc(F)cc3)CC2)n1", "% Inhibition": -15, "Z score": 1.98}, {"smiles": "COC1CCC(C(=O)NS(=O)(=O)c2cc(F)c(Br)cc2C)C1", "note": "(stereo not drawn)", "% Inhibition": -3, "Z score": 0.43}, {"smiles": "COc1cccc(CNC(=O)Cn2nc3ccc(C(=O)NCc4ccccc4)cn3c2=O)c1", "% Inhibition": -10, "Z score": 1.76}, {"smiles": "Cc1nc(C)c(C(=O)NC[C@H]2CCCN(Cc3cccc4nonc34)C2)s1", "% Inhibition": -12, "Z score": 2.17}, {"smiles": "Cc1cccn2c(=O)c(C(=O)NCc3cocn3)cnc12", "% Inhibition": -12, "Z score": 1.47}, {"smiles": "CCN(CCNC(=O)OC(C)(C)C)C1CC1", "% Inhibition": 3, "Z score": -0.41}, {"smiles": "CCc1cnccc1C(=O)N(CC1CCCCC1)c1ccccn1", "% Inhibition": -12, "Z score": 1.63}, {"smiles": "CCOc1ccccc1NC(=O)Cn1nc2c(N(C)C)nc3ccccc3n2c1=O", "% Inhibition": -13, "Z score": 1.8}, {"smiles": "C=CCN1CC[C@@]2(CCC1=O)CN(c1cc(C#N)ccn1)CCN2C", "% Inhibition": -15, "Z score": 2.08}, {"smiles": "Cn1nccc1NC(=O)[C@@H]1NCCOc2ccccc21", "% Inhibition": -3, "Z score": 0.42}, {"smiles": "CC[C@H]1CCCN(C(C)(C)CNS(=O)(=O)CC2CCOCC2)C1", "% Inhibition": -5, "Z score": 0.58}, {"smiles": "N#Cc1ccc(N[C@H]2CCN(C(=O)c3ccccc3)C[C@@H]2O)nc1", "% Inhibition": 3, "Z score": -0.27}, {"smiles": "Cc1ccc([C@H](C)N(C)c2nc(C)cc(C#N)n2)c(C)c1", "% Inhibition": -2, "Z score": 0.25}, {"smiles": "Cn1cc(C(=O)N(CCc2cccs2)C2CCOCC2)nn1", "% Inhibition": -1, "Z score": 0.1}, {"smiles": "C=CCC[C@@H](CN1CCOCC1)Oc1cc(C)nc(-c2ccccc2)n1", "% Inhibition": -8, "Z score": 1.34}, {"smiles": "COC(CNC(=O)C1(C)CC2CCC1C2)OC", "note": "(stereo not drawn)", "% Inhibition": 21, "Z score": -2.66}, {"smiles": "Cc1ccncc1CNC(=O)N1CC(F)C1", "% Inhibition": 1, "Z score": -0.14}, {"smiles": "Cc1n[nH]c(C)c1-c1cc(C)c2nccn2c1", "% Inhibition": 1, "Z score": -0.14}, {"smiles": "CN(C)[C@@H](CNC(=O)C(C)(C)O)c1cccc(C(F)(F)F)c1", "% Inhibition": -7, "Z score": 1.33}, {"smiles": "COc1ccccc1NS(=O)(=O)c1cc(-c2n[nH]c(=O)c3c2CCCC3)ccc1OC", "% Inhibition": -10, "Z score": 1.22}, {"smiles": "COc1cc(NC(=O)N2CCC(C)=C(C)C2)ccn1", "% Inhibition": -15, "Z score": 1.51}, {"smiles": "Cc1cccc(-c2ncc(C(=O)N[C@@H](C)c3ccccc3)c(N(C)C(C)C)n2)c1", "% Inhibition": 3, "Z score": -0.57}, {"smiles": "C[C@@H](c1ccccc1)N(c1ccccc1)S(=O)(=O)c1cnc2c(c1)c(=O)[nH]c(=O)n2C", "% Inhibition": -7, "Z score": 0.95}, {"smiles": "Cc1ccc(N2N=C(C(=O)NCc3ccc(F)cc3)S(=O)(=O)c3cccnc32)cc1", "% Inhibition": 8, "Z score": -1.01}, {"smiles": "Cc1nn(C)c(C)c1S(=O)(=O)NC1(C(F)(F)F)CCC1", "% Inhibition": -10, "Z score": 1.1}, {"smiles": "CC(CC(O)c1cccs1)NCc1cccn1C", "note": "(stereo not drawn)", "% Inhibition": -2, "Z score": 0.18}, {"smiles": "CC[C@](O)(CNC(=O)CCOC)c1ccc(Br)cc1", "% Inhibition": -2, "Z score": 0.22}, {"smiles": "Cc1cc(CNC2CCC(C)(NC(=O)OC(C)(C)C)CC2)ccn1", "note": "(stereo not drawn)", "% Inhibition": -4, "Z score": 0.84}, {"smiles": "COc1ccc2cc(C(=O)N[C@H]3COCC[C@@H]3OC)sc2c1", "% Inhibition": -5, "Z score": 0.68}, {"smiles": "O=c1ccc2cc(Cl)cnc2n1Cc1cc(C2CC2)no1", "% Inhibition": -11, "Z score": 1.57}, {"smiles": "Cc1ccc(NC(=O)c2ccc3c(=O)n(-c4cccc(C)c4)c(N4CCCC4)nc3c2)cc1", "% Inhibition": 7, "Z score": -1.25}, {"smiles": "N#CCN(C(=O)c1coc(CC2CC2)n1)C1CCCC1", "% Inhibition": 0, "Z score": -0.03}, {"smiles": "CC(=O)O[C@@H]1CC(C)N(C(C)=O)c2ccc(C)cc21", "note": "(stereo partly drawn)", "% Inhibition": -14, "Z score": 1.6}, {"smiles": "Cc1ccc(C)c(Nc2nc(N3CCN(Cc4ccccc4)CC3)nc3nccnc23)c1", "% Inhibition": -12, "Z score": 1.4}, {"smiles": "O=C(NCC1CCCCC1O)c1cccc(-c2nnco2)c1", "note": "(stereo not drawn)", "% Inhibition": -16, "Z score": 1.61}]}]}
